Measurements taken from PubChem BioAssay AID1479 (National Center for Advancing Translational Sciences (NCATS), 2009).
“And” between values parts separate entries of the source, which are not always exact repeats. Equal values may be shown once. The campaign covered roughly 280,000 compounds. About 820 (0.29%) were called active. This list was built around the results that the source calls inconclusive (neither active nor inactive); the mix of calls is not that of the screen. Calls follow the shape of the dose curve; as a rule, active = well fitted curve in either direction with a large enough effect; inconclusive = small, poorly fitted or top-dose-only effect; inactive = flat fitted curve, though single readings scatter. No potency is given beside an inconclusive call; the fits are too rough.

experiment: Total Fluorescence Counterscreen for Inhibitors of the Interaction of Thyroid Hormone Receptor and Steroid Receptor Coregulator 2; conditions: TRb/SRC2 Texas Red total fluorescence interference; series mostly up to 106 µM
Method in brief: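 Flags fluorescent or light-absorbing compounds by total fluorescence, S + 2P, at 555 nm excitation and 632 nm emission. Mixture: 20 nM Texas Red SRC2 peptide, 0.6 uM human TRb LBD, 1 uM T3, 5% DMSO; compound exposure 5 h at ambient temperature.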
% is scaled to controls: 0 for no effect and ±100 for the full control effect; potency is read from the fitted curve at half-maximal effect; tags tell the direction and shape of the fitted curve or compound fluorescence and quenching.

Row | SMILES | Potency | fluorescence change, negative = quenching
1 | CCOC(=O)c1ccccc1NC(=O)c1c(C)oc2ncnc(N3CCOCC3)c12 | inconclusive [falling, full curve, poor fit] | –
2 | Oc1ccc(C=Nc2ccc3ncccc3c2)c(O)c1 | inconclusive [quencher, partial curve] | –
3 | Cc1ccc(S(=O)(=O)CCCS(=O)(=O)c2ccc(C)cc2)cc1 | inactive | –
4 | CCc1ccc(C(=O)c2cnc3ccc(F)cc3c2S(=O)(=O)c2ccccc2)cc1 | active: 25.1 µM [quencher] | –
5 | CCCCS(=O)(=O)NC1=NCN(Cc2ccco2)CN1 | inactive | –
6 | COc1cc(/C=N/NC(=O)/C(=C\c2ccc3c(c2)OCO3)NC(=O)c2ccccc2)ccc1O | inconclusive [falling, full curve, poor fit] | –
7 | COc1cc(C2N(c3ccccc3)CCN2c2ccccc2)cc(OC)c1OC | inactive | –
8 | CCOc1cc(C(=O)NCc2ccc3c(c2)CCN3C(=O)c2ccc(F)cc2)cc(OCC)c1OCC | inconclusive [falling, full curve, poor fit] | –
9 | OCCN(CCO)c1ccc(C(c2ccccc2Cl)c2ccc(N(CCO)CCO)cc2Cl)c(Cl)c1 | inactive | –
10 | Clc1ccc2c(c1)C(N1CCNCC1)=Nc1ccccc1O2 | inconclusive [quencher, full curve] | –
11 | COc1cccc2c1C(=O)c1c(O)c3c(c(O)c1C2=O)C[C@@](O)(C(=O)CO)C[C@@H]3OC1C[C@@H](N)[C@H](O)[C@H](C)O1 (stereo partly drawn) | active: 39.8 µM [fluorescent] | –
12 | COc1ccccc1N1CCN(c2ncnc3onc(-c4ccc(F)cc4)c23)CC1 | inactive | –
13 | C[C@@H]1CC=C[C@@H]2[C@H]1C(=O)N(Cc1ccccc1)[C@H]2c1cccc(Br)c1 | inconclusive [falling, partial curve, poor fit] | –
14 | c1ccc(-c2cn3c(n2)-c2ccccc2C3)cc1 | inconclusive [quencher, partial curve] | –
15 | Cc1cccc(-c2nc3c4ccccc4nc(N4CCN(c5ccccc5F)CC4)n3n2)c1 | inconclusive [quencher, full curve] | –
16 | CN1CCc2c(sc3c2C(=O)NC(c2ccc(OC(=O)c4ccccc4)cc2)N3)C1 (stereo not drawn) | inactive | –
17 | CC(=O)c1ccc(NS(=O)(=O)c2cnc(N)nc2)cc1 | inconclusive | –
18 | CCOc1ccccc1NC(=O)Cc1csc(COc2cccc(C)c2)n1 | inconclusive [falling, full curve, poor fit] | –
19 | Cc1ccc(CNc2oc(-c3ccc(COc4ccc(Cl)cc4)o3)nc2C#N)cc1 | inconclusive [falling, partial curve, poor fit] | –
20 | COc1ccc(-c2nc(SCC(=O)Nc3ccc4c(c3)OCO4)c(-c3ccccc3)[nH]2)cc1 | inactive | –
21 | CN(C)c1ccc(/C=C2\CCCCC2=O)cc1 | inactive | –
22 | N#Cc1ccc(C(=O)Nc2ccccc2-c2nc3ccccc3s2)c(F)c1 | inconclusive [falling, full curve, poor fit] | –

Row | SMILES | Potency | fluorescence change, negative = quenching
23 | CCOc1cc(CNc2ccc3[nH]c(=O)[nH]c3c2)ccc1OCC(=O)NC(C)(C)C | inactive | –
24 | O=C(CCc1ccc(O)cc1)c1c(O)cc(O)cc1O[C@H]1OC(CO)C(O)C(O)C1O (stereo partly drawn) | inconclusive [quencher, partial curve] | –
25 | O=C(NCc1ccc(F)cc1)N[C@@H](Cc1ccccc1)C(=O)O | inactive | –
26 | O=C(O)CCCCCNS(=O)(=O)c1cccc2c1C(=O)c1ccccc1C2=O | inconclusive [falling, full curve, poor fit] | –
27 | CCOC(=O)Cn1c(=O)n(C2CCCCC2)c2nc(-c3ccc(OCC)cc3)nc(C(N)=O)c21 | inconclusive [falling, partial curve, poor fit] | –
28 | CSc1nc(Nc2ccc(C)cc2)c(C#N)c(-c2ccccc2)n1 | inconclusive [falling, full curve, poor fit] | –
29 | O=C(N/N=C/c1cccs1)c1cccc(NC(=O)c2ccc(Cl)cc2)c1 | inconclusive [falling, full curve, poor fit] | –
30 | CCCCCCC1Cc2cc(OC)c(OC)cc2C(C(C(=O)OCC)C(=O)OCC)O1 (stereo not drawn) | – | inactive: -3.63% [at 11.2 µM] and inactive: -4.79% [at 11.2 µM]
31 | C=CCN1C(=O)N/C(=C/c2ccc(N3CCOCC3)o2)C1=O | inactive | –
32 | COCCN(CCOC)C(=O)c1cc2c(=O)n3ccccc3nc2s1 | inactive | –
33 | C[C@@]1(C(=O)O)NCCc2cc(O)c(O)cc21 | inconclusive [quencher, partial curve] | –
34 | CCOC(=O)c1c(C)n(-c2ccccc2)c2ccc(OC(=O)c3ccccc3)cc12 | inconclusive [falling, full curve, poor fit] | –
35 | Cc1cccc(C)c1NC(=O)C(NC(=O)CN1C(=O)c2ccccc2C1=O)c1ccccc1 (stereo not drawn) | inconclusive [quencher, full curve] | –
36 | COc1ccc(NC(=O)CC2C(=O)N(c3ccc(Cl)cc3)C(=S)N2CCc2ccccn2)cc1 (stereo not drawn) | inconclusive [falling, full curve, poor fit] | –
37 | Cc1ccc2c(c1)-c1nc(-c3ccc(Cl)cc3)cc(-c3coc4ccccc4c3=O)c1CO2 | active: 10 µM [quencher] | –
38 | CCOCCc1nn2c(=O)cc(COC(=O)CNC(=O)c3ccc(C(C)(C)C)cc3)nc2s1 | inconclusive [falling, full curve, poor fit] | –
39 | COc1cc(NC(=O)CCc2c(C)nn(-c3ccc4nncn4n3)c2C)cc(OC)c1OC | inactive | –
40 | CCOC(=O)c1c(NC(=O)CSc2cn(CCNC(=O)c3ccccc3F)c3ccccc23)sc2c1CCC2 | inactive | –
41 | O=C(CCSc1nc(-c2ccco2)cc(C(F)(F)F)n1)Nc1cccc(O)c1 | inconclusive [falling, full curve, poor fit] | –
42 | CCOC1OC(=O)C(Cl)=C1Nc1ccccc1C (stereo not drawn) | inconclusive [quencher, full curve] | –
43 | Cc1ccc(Cl)cc1N1CCN(C(=O)c2cnc(N3CCOCC3)c3ccccc23)CC1 | active: 70.8 µM [quencher] | –
